Structures are written as SMILES. Where two headings read alike, the source gives them in different places.

For the assay, the system named is temperature sensitive mutant of the E1 enzyme (ts20 cells).
The mark [1] stands for this setting: 39.5° C., two days, 100% D2O, 75 mM TMAO, 0.75 M glycerol.

Regarding `C[N+](C)(C)[O-]` [TMAO, trimethylamine N-oxide], the “apparent growth rate (phase-contrast microscopy)” value (from here on “apparent growth rate”) is given as “normal growth rates”, the “cell morphology (phase-contrast microscopy)” value (“cell morphology” for short) is recorded as “well-rounded morphology” and the “cell proliferation (cell number)” value is on record as “recovery of cell proliferation”.
For `[2H]O[2H]` [deuterated water], the “cell proliferation (cell number)” value (39.5° C., 1, 2 or 3 days) is on record as “failed to exhibit any significant growth”. For the same compound, under setting [1], the “apparent growth rate” value was “only slightly higher” and the “cell morphology” value is listed as “intermediate phenotype”.
On to `OCC(O)CO` [glycerol], for which, for the setting “39.5° C., 1, 2 or 3 days”, the “cell proliferation (cell number)” value is recorded as “recovery of cell proliferation”. In addition, under setting [1], the “apparent growth rate” value is reported as “normal growth rates” and the “cell morphology” value was “well-rounded morphology”.

(Values after patent US6541195B2, “Correction of genetic defects using chemical chaperones” (The Regents of the University of California, priority 1996, dated 2003).)
